Results are given in words; binding and its absence hold for the method and conditions named. Binding seen in cells or lysates may run through a third protein. Some binding calls cover weakened binding; strength is not graded here. For part of these data: Where a sequence is shown, tags or fusion partners need not be part of it. Blank lines part the entries; values can stand above or below the molecule they belong to.
Legend:
[1] = biological target: T1, FLAG-tagged full-length human MG53 (human) (UniProt Q6ZMU5); assay: co-IP; extracts from co-transfected COS-7 cells, in the absence of EGTA or Ca2+; missense mutants of dysferlin; data not shown
T1 sequence: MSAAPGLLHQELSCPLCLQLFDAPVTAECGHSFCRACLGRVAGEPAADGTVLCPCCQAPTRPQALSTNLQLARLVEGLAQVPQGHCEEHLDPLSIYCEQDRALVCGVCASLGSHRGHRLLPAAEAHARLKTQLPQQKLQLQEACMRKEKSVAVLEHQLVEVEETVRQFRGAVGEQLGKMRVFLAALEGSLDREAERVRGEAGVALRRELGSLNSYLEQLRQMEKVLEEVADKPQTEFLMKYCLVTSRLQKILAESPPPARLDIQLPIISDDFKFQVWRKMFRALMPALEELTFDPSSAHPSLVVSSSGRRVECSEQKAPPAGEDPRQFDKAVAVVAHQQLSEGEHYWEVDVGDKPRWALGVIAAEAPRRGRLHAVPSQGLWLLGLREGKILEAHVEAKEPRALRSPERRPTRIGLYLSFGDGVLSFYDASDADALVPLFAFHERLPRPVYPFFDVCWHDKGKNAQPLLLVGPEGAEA

[2] = biological target: T1, FLAG-tagged full-length human MG53 (human); assay: co-IP; COS-7 cells co-transfected with FLAG-MG53 and c-myc-dysferlin constructs, lysed 48 h later in 20 mM Tris-HCl pH 7.5, 150 mM NaCl, 1% NP-40 without CaCl2 and EGTA; IP with anti-FLAG (M2) or anti-c-myc (9E10), immunoblot
[3] = biological target: T2, Mitsugumin 53 (MG53), endogenous, mouse skeletal muscle (mouse (endogenous in skeletal muscle)) (UniProt Q1XH17); assay: co-IP; mouse gastrocnemius muscle lysate, 20 mM Tris-HCl pH 7.5, 150 mM NaCl, 1% NP-40, without EGTA or CaCl2; IP with polyclonal anti-MG53 or anti-dysferlin, immunoblot
T2 sequence: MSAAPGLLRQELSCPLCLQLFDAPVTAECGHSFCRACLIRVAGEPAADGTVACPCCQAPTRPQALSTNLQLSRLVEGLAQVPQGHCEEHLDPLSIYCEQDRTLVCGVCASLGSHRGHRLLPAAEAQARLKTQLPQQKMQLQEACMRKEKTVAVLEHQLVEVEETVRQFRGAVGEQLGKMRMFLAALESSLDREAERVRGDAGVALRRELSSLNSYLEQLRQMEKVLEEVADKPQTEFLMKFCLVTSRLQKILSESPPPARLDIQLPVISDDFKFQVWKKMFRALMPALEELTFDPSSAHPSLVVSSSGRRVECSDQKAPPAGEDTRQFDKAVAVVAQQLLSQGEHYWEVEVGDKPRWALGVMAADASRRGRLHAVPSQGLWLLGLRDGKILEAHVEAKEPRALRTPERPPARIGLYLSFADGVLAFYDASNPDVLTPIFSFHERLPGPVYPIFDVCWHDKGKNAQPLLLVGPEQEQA

[4] = biological target: dysferlin, endogenous, mouse skeletal muscle (mouse (endogenous in skeletal muscle)) (UniProt Q9ESD7); assay: co-IP; mouse gastrocnemius muscle lysate, same buffer supplemented with 2 mM EGTA
[5] = biological target: dysferlin, endogenous, mouse skeletal muscle (mouse (endogenous in skeletal muscle)) (UniProt Q9ESD7); assay: co-IP; mouse gastrocnemius muscle lysate, same buffer supplemented with 1 mM CaCl2
[6] = biological target: dysferlin, endogenous, mouse skeletal muscle (mouse (endogenous in skeletal muscle)) (UniProt Q9ESD7); assay: co-IP; mouse gastrocnemius muscle lysate, 20 mM Tris-HCl pH 7.5, 150 mM NaCl, 1% NP-40, without EGTA or CaCl2; IP with polyclonal anti-MG53 or anti-dysferlin, immunoblot
[7] = biological target: dysferlin, endogenous, C2C12 myotubes (mouse (endogenous in C2C12)) (UniProt Q9ESD7); assay: co-IP; C2C12 myotubes, without EGTA or CaCl2; data not shown
[8] = biological target: T1, FLAG-tagged full-length human MG53 (human); assay: co-IP; COS-7 cells co-transfected with FLAG-MG53 and c-myc-dysferlin constructs, lysed 48 h later in 20 mM Tris-HCl pH 7.5, 150 mM NaCl, 1% NP-40 without CaCl2 and EGTA; IP with anti-FLAG (M2) or anti-c-myc (9E10), immunoblot; remark: listed apart in the source

Molecule: c-myc-tagged human dysferlin deletion mutant aa 130-2080 (without the C2A domain) (from UniProt O75923 130-2080) (domain or fragment)
- binding [2]: no binding

B2: MG53, endogenous, C2C12 myotubes (protein, UniProt Q1XH17 1-477)
chain: MSAAPGLLRQELSCPLCLQLFDAPVTAECGHSFCRACLIRVAGEPAADGTVACPCCQAPTRPQALSTNLQLSRLVEGLAQVPQGHCEEHLDPLSIYCEQDRTLVCGVCASLGSHRGHRLLPAAEAQARLKTQLPQQKMQLQEACMRKEKTVAVLEHQLVEVEETVRQFRGAVGEQLGKMRMFLAALESSLDREAERVRGDAGVALRRELSSLNSYLEQLRQMEKVLEEVADKPQTEFLMKFCLVTSRLQKILSESPPPARLDIQLPVISDDFKFQVWKKMFRALMPALEELTFDPSSAHPSLVVSSSGRRVECSDQKAPPAGEDTRQFDKAVAVVAQQLLSQGEHYWEVEVGDKPRWALGVMAADASRRGRLHAVPSQGLWLLGLRDGKILEAHVEAKEPRALRTPERPPARIGLYLSFADGVLAFYDASNPDVLTPIFSFHERLPGPVYPIFDVCWHDKGKNAQPLLLVGPEQEQA
- binding [7]: binds

B3: c-myc-tagged human dysferlin deletion mutant aa 1081-2080 (without the C2A domain) (domain or fragment, UniProt O75923 1081-2080)
chain: LEYRKTDAFRRRRWRRRMEPLEKTGPAAVFALEGALGGVMDDKSEDSMSVSTLSFGVNRPTISCIFDYGNRYHLRCYMYQARDLAAMDKDSFSDPYAIVSFLHQSQKTVVVKNTLNPTWDQTLIFYEIEIFGEPATVAEQPPSIVVELYDHDTYGADEFMGRCICQPSLERMPRLAWFPLTRGSQPSGELLASFELIQREKPAIHHIPGFEVQETSRILDESEDTDLPYPPPQREANIYMVPQNIKPALQRTAIEILAWGLRNMKSYQLANISSPSLVVECGGQTVQSCVIRNLRKNPNFDICTLFMEVMLPREELYCPPITVKVIDNRQFGRRPVVGQCTIRSLESFLCDPYSAESPSPQGGPDDVSLLSPGEDVLIDIDDKEPLIPIQEEEFIDWWSKFFASIGEREKCGSYLEKDFDTLKVYDTQLENVEAFEGLSDFCNTFKLYRGKTQEETEDPSVIGEFKGLFKIYPLPEDPAIPMPPRQFHQLAAQGPQECLVRIYIVRAFGLQPKDPNGKCDPYIKISIGKKSVSDQDNYIPCTLEPVFGKMFELTCTLPLEKDLKITLYDYDLLSKDEKIGETVVDLENRLLSKFGARCGLPQTYCVSGPNQWRDQLRPSQLLHLFCQQHRVKAPVYRTDRVMFQDKEYSIEEIEAGRIPNPHLGPVEERLALHVLQQQGLVPEHVESRPLYSPLQPDIEQGKLQMWVDLFPKALGRPGPPFNITPRRARRFFLRCIIWNTRDVILDDLSLTGEKMSDIYVKGWMIGFEEHKQKTDVHYRSLGGEGNFNWRFIFPFDYLPAEQVCTIAKKDAFWRLDKTESKIPARVVFQIWDNDKFSFDDFLGSLQLDLNRMPKPAKTAKKCSLDQLDDAFHPEWFVSLFEQKTVKGWWPCVAEEGEKKILAGKLEMTLEIVAESEHEERPAGQGRDEPNMNPKLEDPRRPDTSFLWFTSPYKTMKFILWRRFRWAIILFIILFILLLFLAIFIYAFPNYAAMKLVKPFS
- binding [8]: no binding

Second part, the molecule after the results:

- binding [1]: binds
Molecule: full-length dysferlin with the W999C missense mutation (from UniProt O75923 1-2080)

- binding [2]: binds
Molecule: c-myc-tagged full-length human dysferlin (from UniProt O75923 1-2080)

- binding [3]: binds
Molecule: dysferlin, endogenous, mouse skeletal muscle (from UniProt Q9ESD7 1-2090)

- binding [4]: no binding (condition: with 2 mM EGTA)
- binding [5]: no binding (condition: with 1 mM CaCl2)
- binding [6]: binds
B1: Mitsugumin 53 (MG53), endogenous, mouse skeletal muscle (protein, UniProt Q1XH17 1-477)
chain: MSAAPGLLRQELSCPLCLQLFDAPVTAECGHSFCRACLIRVAGEPAADGTVACPCCQAPTRPQALSTNLQLSRLVEGLAQVPQGHCEEHLDPLSIYCEQDRTLVCGVCASLGSHRGHRLLPAAEAQARLKTQLPQQKMQLQEACMRKEKTVAVLEHQLVEVEETVRQFRGAVGEQLGKMRMFLAALESSLDREAERVRGDAGVALRRELSSLNSYLEQLRQMEKVLEEVADKPQTEFLMKFCLVTSRLQKILSESPPPARLDIQLPVISDDFKFQVWKKMFRALMPALEELTFDPSSAHPSLVVSSSGRRVECSDQKAPPAGEDTRQFDKAVAVVAQQLLSQGEHYWEVEVGDKPRWALGVMAADASRRGRLHAVPSQGLWLLGLRDGKILEAHVEAKEPRALRTPERPPARIGLYLSFADGVLAFYDASNPDVLTPIFSFHERLPGPVYPIFDVCWHDKGKNAQPLLLVGPEQEQA

Reference: paper PMC3493068
